Measurements reported in the supplement of paper PMC3334620.
Whole data set: some 33,000 sequences, median “E-score (-0.5 to 0.5)” near -0.021, cut for the highest 2% near 0.32. This is one part of the list.

Target: T1, Zap1 (UniProt P47043)
T1 sequence: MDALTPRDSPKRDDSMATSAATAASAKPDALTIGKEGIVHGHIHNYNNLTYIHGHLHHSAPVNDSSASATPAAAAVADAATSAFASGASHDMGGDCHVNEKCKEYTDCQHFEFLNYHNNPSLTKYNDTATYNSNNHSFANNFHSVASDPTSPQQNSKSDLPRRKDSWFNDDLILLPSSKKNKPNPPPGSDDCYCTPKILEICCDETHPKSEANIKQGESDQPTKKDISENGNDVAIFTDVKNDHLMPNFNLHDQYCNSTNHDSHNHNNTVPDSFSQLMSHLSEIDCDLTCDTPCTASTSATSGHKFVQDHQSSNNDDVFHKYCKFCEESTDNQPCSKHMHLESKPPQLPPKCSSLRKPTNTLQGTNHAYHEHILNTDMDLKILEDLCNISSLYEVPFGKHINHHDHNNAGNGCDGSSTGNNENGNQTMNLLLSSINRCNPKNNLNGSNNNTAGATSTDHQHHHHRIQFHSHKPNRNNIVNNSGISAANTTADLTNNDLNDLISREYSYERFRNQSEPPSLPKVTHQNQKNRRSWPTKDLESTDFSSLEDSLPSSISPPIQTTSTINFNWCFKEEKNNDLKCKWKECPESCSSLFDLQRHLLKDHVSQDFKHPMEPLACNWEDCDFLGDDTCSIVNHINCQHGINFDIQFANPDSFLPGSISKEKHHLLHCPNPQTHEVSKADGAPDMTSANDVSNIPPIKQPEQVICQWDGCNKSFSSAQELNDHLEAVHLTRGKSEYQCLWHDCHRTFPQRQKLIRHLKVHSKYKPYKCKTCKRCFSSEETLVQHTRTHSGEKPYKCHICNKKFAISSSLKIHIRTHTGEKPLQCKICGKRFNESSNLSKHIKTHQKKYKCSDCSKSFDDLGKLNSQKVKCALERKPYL
Experiment: PBM E-score (8-mer binding enrichment) (E-score (-0.5 to 0.5)); higher = stronger / more preferred TF binding; most listed sequences are background and not binding sites
Conditions: protein concentration: 200 nM; construct: GST-full length
Outline: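 Using PURExpress in vitro transcription/translation, GST-tagged yeast transcription factors were made in full-length or DNA-binding-domain form. These were applied at about 100-200 nM to double-stranded universal all-10-mer Agilent arrays, and bound protein was detected with fluorescent anti-GST. Scans were normalised with masliner before the Universal PBM Analysis Suite assigned E-scores to ungapped eight-base words pooled with their reverse complements.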

| Sequence | PBM E-score |
| --- | --- |
| CAGAGTCC | -0.0013 |
| CCCTAGCC | -0.047 |
| CTTTAGGC | -0.131 |
| ACGTACAA | 0.114 |
| GCCCGGCA | -0.177 |
| ATGGGAGG | 0.0318 |
| ATGACGCA | -0.0504 |
| CTCAACGA | -0.128 |
| CTTGTACC | 0.0668 |
| GCTTTCCC | -0.195 |
| TACAGCGA | -0.129 |
| CGGGTGTA | 0.0123 |
| ATTCAATG | 0.00918 |
| AAATGGCT | 0.00044 |
| AAGGTTAC | 0.475 |
| ATCGTCTC | -0.177 |
| ACTACTAC | 0.0865 |
| AGCTCGTA | 0.0234 |
| TGCATGCA | 0.00784 |
| AAGGCATT | -0.172 |
| CCTTATTA | 0.0942 |
| AAAGGTGT | -0.0367 |
| CAGGACTC | -0.211 |
| AATTGACT | -0.139 |
| CCCCAGAG | -0.0329 |

| Sequence | PBM E-score |
| --- | --- |
| ACCCACTC | 0.0493 |
| ATCGGCCA | -0.143 |
| ACCAGCCA | -0.111 |
| CACGTACC | -0.172 |
| CGTGTCAC | 0.0583 |
| GACGACGC | -0.222 |
| ATACGTCA | -0.0248 |
| AGCGGTCG | -0.226 |
| AAACTTGC | -0.0339 |
| ATGTTCTA | 0.0439 |
| ACCTCCCA | -0.0877 |
| ACCCACAA | 0.353 |
| GACTGACC | -0.0679 |
| AGAGCAGC | -0.302 |
| TCCATTCA | 0.0213 |
| CAACTCGG | 0.0516 |
| GCACTAGC | -0.207 |
| CCGCCCTC | -0.0988 |
| AGTGCCAT | -0.217 |
| GACCAATA | 0.0837 |
| GGCTGCTA | -0.203 |
| CCGTCGGA | -0.182 |
| ACCATGCT | -0.0291 |
| CAAGTTTC | -0.0424 |
| CTAGCTGC | -0.249 |

| Sequence | PBM E-score |
| --- | --- |
| AGGAGTAC | -0.0198 |
| AATTTTAT | 0.215 |
| ACCAATGA | 0.0415 |
| CACCATTC | -0.0765 |
| ATAGTTGG | -0.0799 |
| AGTCCGAA | -0.0748 |
| ACCGGGAC | -0.0187 |
| GTGACGAA | 0.0255 |
| CCCAAGGG | 0.326 |
| AATAAGAG | -0.0531 |
| TATGCTCA | -0.0266 |
| ATGTCCAA | 0.237 |
| TGCGTAAA | 0.0331 |
| CCTTGCAA | -0.0371 |
| GCTGTGAA | 0.0749 |
| ATTCAAAC | 0.128 |
| ACGGGAGA | -0.116 |
| CCCAACCA | 0.123 |
| ACAGGTTA | 0.398 |
| AGTAGTCG | -0.0515 |
| GTTCACCA | -0.0739 |
| AATTCATC | -0.144 |
| AATGAGCA | -0.0188 |
| AGCCCCAG | -0.101 |
| GCGAAGAC | -0.231 |

| Sequence | PBM E-score |
| --- | --- |
| CGTTCTTC | 0.00343 |
| GAAAACCC | 0.252 |
| CGGGCATC | -0.212 |
| CGGAAGTA | -0.0922 |
| GATAATAA | 0.0657 |
| CCCCACCG | 0.163 |
| GATATTGC | 0.00781 |
| AGGTGCCG | -0.0629 |
| GCCGAAGC | -0.31 |
| CCGTAGAG | 0.125 |
| ATGCCCAG | -0.268 |
| CGCTAAAC | -0.0872 |
| CAGTAAGC | -0.0263 |
| CTAGAGTC | -0.248 |
| AGAGACTC | -0.172 |
| CGAGTGCG | -0.106 |
| AAGGCATC | -0.178 |
| CTAAAGCA | -0.0501 |
| ATCAGGTG | -0.0698 |
| ATGTATCG | -0.0586 |
| GTGTAAAC | 0.0154 |
| ACCGGGGA | -0.0428 |
| ACACTGCA | -0.131 |
| ACGTTTGG | -0.0703 |
| AAGACGAC | -0.033 |

| Sequence | PBM E-score |
| --- | --- |
| AGCCAACC | 0.206 |
| TGAGATCA | 0.00696 |
| CTTCTTCC | -0.273 |
| ACCAGAAC | 0.263 |
| ATTTAACA | -0.0688 |
| AGAAAGGA | -0.168 |
| AATCAAAT | -0.0162 |
| GAGAGGAA | -0.161 |
| CGCGTCAG | -0.123 |
| ATACTCAT | -0.174 |
| CCAATTCC | 0.142 |
| ATTATCGC | 0.249 |
| CGGAAAAA | 0.179 |
| AACTGTGG | 0.261 |
| ATGGACAA | 0.0897 |
| AGGGTATG | 0.395 |
| AGGCAGGC | -0.28 |
| AACTTAAC | 0.244 |
| GCACGTGA | -0.176 |
| ATTTCTAC | 0.0903 |
| ACTACTTG | -0.0293 |
| ATACCGTG | -0.0327 |
| CAATCCCG | 0.105 |
| GAAGCACA | -0.132 |
| CCCCGGGG | 0.211 |

| Sequence | PBM E-score |
| --- | --- |
| GGTTGAAC | 0.162 |
| ACCTGGGC | -0.242 |
| AAGAATCA | -0.0872 |
| CATTAACG | 0.0999 |
| GCGTGTCC | -0.175 |
| ACACATGT | 0.0111 |
| ATCCGCTA | -0.157 |
| CATTCAGA | 0.0592 |
| ATTAAGAC | 0.0665 |
| CCTGATTC | -0.141 |
| CGCATAAA | 0.0783 |
| ATATCACG | -0.193 |
| GCACTCAA | -0.0596 |
| TGTACACA | 0.0485 |
| ACCCCGGA | 0.287 |
| AAAGTGCT | -0.0876 |
| AAAAGGCA | 0.192 |
| AGCACCGA | 0.0191 |
| ATACTGGA | 0.104 |
| AAAGGATT | -0.0714 |
| CAACCACA | 0.291 |
| CTGACAAA | 0.0942 |
| ATAGCCTG | 0.00972 |
| AAGCCCAG | -0.157 |
| AAGGCAAT | -0.1 |

| Sequence | PBM E-score |
| --- | --- |
| GGTGTTGA | -0.0445 |
| CGCCCCGC | 0.00649 |
| ACATAGAC | -0.104 |
| GACTGCAA | -0.114 |
| ACACATCC | -0.0974 |
| TCCAATAA | 0.23 |
| AACGTACT | 0.0257 |
| CTCGGCAG | -0.15 |
| AAGTGCGT | -0.0507 |
| CCGGGTGA | 0.218 |
| AAGCACCT | 0.00133 |
| GCATAAAA | 0.108 |
| CACCTGCG | -0.129 |
| ATATTGGC | -0.0138 |
| ACTCGTGA | -0.135 |
| AACGTTCG | -0.104 |
| CGTCCCGC | -0.0499 |
| AAGATAGC | -0.144 |
| AAGCTTTG | -0.0861 |
| ATGTGAGC | -0.323 |
| TCAGGTCA | 0.199 |
| GAAAGAGA | -0.00161 |
